The labels stand for the following.
B1: LINE1-full (parent)
chain: UACGUAGGUGGUUUUCCCCUGAUAGUGCUAAGGGGGCCUGGAAGUUUGGACUGGGCAGAGCUCAACACAGCGUGGCAAAGUGGCUGUGGCUAGACUGCCUCUCUGGAUUCCUCGUCACUCAGCAGGGCAUCUCUGAGAGAAAUGCC

Read counts are not given, so values of variants with three or more changes are uncertain.

In this data set the parent is B1. Kind of data set: self-cleavage, relative activity (ratio to wild type); higher = more cleavage; in vitro, sequencing; the parent is a self-cleaving ribozyme.
Consider UACGUAGGUGGUUUUCCCCUGAUAGUGCUAAGGGGGCCUGGAAGCUUGGACUGGGCAGGGCUCAACACAGCGCGGCAAAGUGGCUGUGGCUAGACUGCCUCUCUGGAUUCCUCGUCACUCAGCAGGGCAUCUCUGAGAGAAAUGCC, for which the self-cleavage worked out at 0.

Consider UACGUAGGUGGUUUUCCCCUGAUAGUGCUAAGGGGGCCUGGAAGAUUGGACUGGGCAGAGCUCAACACAGCGUGGCAAAGUGGCCGUGGCUAGACUGCCCCUCUGGAUUCCUCGUCACUCAGCAGGGCAUCUCUGAGAGAAAUGCC, for which the self-cleavage is 0.54. As to UACGUAGGUGGUUUUCCCCUGAUAGUGCUAAGGGGGCCUGGAAGAUUGGACUGGGCAGAGCUCAACACAGCGUGGCAAAGUGUCUGUGGCUAGACCGCCUCUCUGGAUUCCUCGUCACUCAGCAGGGCAUCUCUGAGAGAAAUGCC, the self-cleavage came to 0.04. As for UACGUAGGUGGUUUUCCCCUGAUAGUGCUAAGGGGGCCUGGAAGCUUGGGCUGGGCAGAGCUCAACACAGCGUGGCAAAGUGGCUGAGGCUAGACUGCCUCUCUGGAUUCCUCGUCACUCAGCGGGGCAUCUCUGAGAGAAAUGCC, the self-cleavage is 0.

As for UACGUAGGUGGUUUUCCCCUGAUAGUGCUAAGGGGGCCUGGAAGAUUGGACUGGGCAGAGCUCAACACAGCGUGGCGAAGUGGCUGUGGCUAGACUGCCUCUCUGGAUUCCUCGACACUCGGCAGGGCAUCUCUGAGAGAAAUGCC, the self-cleavage is 2.82. On to UACGUAGGUGGUUUUCCCCUGAUAGUGCUAAGGGGGCCUGGAAGAUUGGACCGGGCAGAGCCCAACACAGCGUGGCAAAGUGGCUGUGGCUAGACUGCCUCUCUGGACUCCUCGUCACUCAGCAGGGCAUCUCUGAGAGAAAUGCC, for which the self-cleavage is 0.07. For the variant UACGUAGGUGGUUUUCCCCUGAUAGUGCUAAGGGGGCCUGGAAGAUUGGACUGGGCAGAGCUCAACACAGCGUGGCAAAGUGGCUGUGGCUAGACUGCCUCUCUGGACUCCUCGUCACUCAGCAGGGCAUCUCUGAGAGUAAUGCC, the self-cleavage stood at 0.54. The result for UACGUAGGUGGUUUUCCCCUGAUAGUGCUAAGGGGGCCUGGAAGCUUGGACUGGGCAGGGCUCAACACUGCGUGGCAAAGUGGCUGUGGCUAGACUGCCUCUCUGGAUUCCUCGUCACUCAGCAGGGCGUCUCUGAGAGAAAUGCC reads 0; that for UACGUAGGUGGUUUUCCCCUGAUAGUGCUAAGGGGGCCUGGAAGCUUGGACUGGGCGGAGCUCAACACAGCGUGGCAAAGUGGCUGUGGCUAGACUGCCUCUCUGGAUUCCCCGUCACUCAGCAGGGCAUCUCUGAGAGAAAUGCC, 0.51. On to UACGUAGGUGGUUUUCCCCUGAUAGUGCUAAGGGGGCCUGGAAGAUUGGACUGGGCAGAGCUCAACACAGCGUGGCAAAGUGGCUGCGGCUAGACUGCCUCUCAGGAUUCCUCGUCACUCAGCAGGGCAUCUCUGAGAGAAAUGCC, for which the self-cleavage is 0. Take UACGUAGGUGGUUUUCCCCUGAUAGUGCUAAGGGGGCCUGGAAGCUUGGACUGGGCGGAGCUCAAUACAGCGUGGCAAAGUGGCUGUGGCUAGACUGCCUCUCUGGAUUCCUCGUCACUCAGCAGGGCAUCUCUGAGAGAGAUGCC: the self-cleavage came out at 0.07. With UACGUAGGUGGUUUUCCCCUGAUAGUGCUAAGGGGGCCUGGAAGAUUGGACUGGGCAGAGCUCAACACAGCGUGGCAAAGUGGCUGUGGCUAGACUGCCUCUCUGGAUUCCUCGUCACUCGGCAGGGCAUCUCUGAGAGAACUGCC, the self-cleavage is 0.9.

With UACGUAGGUGGUUUUCCCCUGAUAGUGCUAAGGGGGCCUGGAAGAUUGGACUGGGCAGAGCUCAACGCAGCGUGGCAAAGUGGCUGUGGCUAGACUGCCUCUCUGGAUUCCUCGUCACUCAGCAGGGCUUCUCUGAGAGAAAUGCC, the self-cleavage amounted to 0.89. For UACGUAGGUGGUUUUCCCCUGAUAGUGCUAAGGGGGCCUGGAAGCUUGGCCUGGGCAGAGCUCAACACAGCGUGGCAAAGUGGCUGUGGCUAGACUGCCUCUCUGGAUUCCUUGUCACUCAGCAGGGCAUCUCUGAGAGAAAUGCC, the self-cleavage stood at 0.85. For the variant UACGUAGGUGGUUUUCCCCUGAUAGUGCUAAGGGGGCCUGGAAGAUUGGACUGGGCAGAGCUCAACACAGCGUGGCAAAGAGGCUGUGGCUAGGCUGCCCCUCUGGAUUCCUCGUCACUCAGCAGGGCAUCUCUGAGAGAAAUGCC, the self-cleavage was 0.56. For UACGUAGGUGGUUUUCCCCUGAUAGUGCUAAGGGGGCCUGGAAGAUUGGACUGGGCAGAGCUCAACACAGCGCGGCAAAGUGGCUGUGGCUAGACUGUCUCUCUGGAUUCCUCGUCACUCAGCAGGGCAUCUCUGAGAGAAAUGCC, the self-cleavage was found to be 0.25.

With UACGUAGGUGGUUUUCCCCUGAUAGUGCUAAGGGGGCCUGGAAGAUUGGACUGGGCAGAGCUCAACACAGCGUGGCAAAGUGGCUGAGGCUAGACUGCCUCUCUGGAUUCCUCGUCACCCAGCAGGGCAUCUCCGAGAGAAAUGCC, the self-cleavage stood at 0.08. In the case of UACGUAGGUGGUUUUCCCCUGAUAGUGCUAAGGGGGCCUGGAAGCUUGGACUGGGCUGAGCACGACACAGCGUGGCAAAGUGGCUGUGGCUAGACUGCCUCUCUGGAUUCCUCGUCACUCAGCAGGGCAUCUCUGAGAGAAAUGCC, the self-cleavage was determined as 0.21. As for UACGUAGGUGGUUUUCCCCUGAUAGUGCUAAGGGGGCCUGGAAGAUUGGACUGGGCAGAGCUCAACACAGCGUGGCAAAGUGGCUGAGGCUAGACUGCCUCUCUGGAUUCCUCGUCACUCAGCAGGGCAUCUCUGAGAGAGAUGCC, the self-cleavage came to 0.04. Consider UACGUAGGUGGUUUUCCCCUGAUAGUGCUAAGGGGGCCUGGAAGAUUGGACUGGGCUGAGCUCAACACAGCGUGGCAAAGUGGCUGAGGCUAGACUGCCUCUCUGGAUUCCUCGUCACUCAGCAGGGCAUCUCUGAGAGAAAUGCC, for which the self-cleavage is 0.04.

Source of the values: the RNAGym collection of RNA variant scans (doi:10.7554/elife.90254).
